Measured values taken from the supplement of paper PMC3334620.
In all, about 33,000 sequences were measured (“E-score (-0.5 to 0.5)”: median about -0.013, highest 2% from about 0.3 on). Some of the results follow.

target: T1, Msn1 (UniProt P22148); test: PBM E-score (8-mer binding enrichment) (E-score (-0.5 to 0.5)); higher = stronger / more preferred TF binding; most listed sequences are background and not binding sites; settings: protein concentration: 200 nM; construct: GST-full length
T1 sequence: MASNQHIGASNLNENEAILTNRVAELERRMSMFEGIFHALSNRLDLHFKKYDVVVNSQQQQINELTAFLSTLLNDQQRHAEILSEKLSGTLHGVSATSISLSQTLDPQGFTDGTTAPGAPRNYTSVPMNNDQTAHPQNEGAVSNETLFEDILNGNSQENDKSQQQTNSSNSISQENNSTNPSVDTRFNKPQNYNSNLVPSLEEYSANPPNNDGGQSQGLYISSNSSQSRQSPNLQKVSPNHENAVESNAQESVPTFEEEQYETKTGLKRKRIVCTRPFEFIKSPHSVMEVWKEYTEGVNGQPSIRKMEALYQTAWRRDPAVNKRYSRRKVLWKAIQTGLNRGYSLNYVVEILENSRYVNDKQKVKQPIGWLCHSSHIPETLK
Procedure: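 Universal 'all 10-mer' protein binding microarrays (Agilent AMADID 015681) probed with GST-tagged S. cerevisiae TFs (full-length or DBD) made by in vitro transcription/translation (PURExpress), about 100-200 nM. Bound TF was detected with fluorescent anti-GST. Each ungapped 8-mer (which stands for itself and its reverse complement) is scored by the PBM enrichment score (E-score), a modified Wilcoxon-Mann-Whitney statistic from -0.5 to +0.5, computed with the Universal PBM Analysis Suite. Scale: above 0.35 generally sequence-specific binding.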

Row | Sequence | PBM E-score
1 | CCATTAAC | 0.139
2 | TACCTAAA | 0.0221
3 | GGGCGGAC | -0.0714
4 | CTGTGCGC | -0.00307
5 | ATAACTGA | 0.112
6 | TGGCACAA | -0.00752
7 | GTTGAAAC | 0.135
8 | CTTCACAC | 0.184
9 | ATAGTAGG | 0.00769
10 | AGGTTCAA | -0.0421
11 | CGTTTTGA | 0.218
12 | AGTTGAAA | 0.035
13 | CCGACAAG | 0.13
14 | CCCTCTCC | -0.287
15 | ATATGTGA | -0.0379
16 | CCAGTGGA | -0.119
17 | CATCTGCG | -0.0602
18 | CTCCGGGA | -0.0499
19 | AGATGCGA | 0.0645
20 | CCAAGAGA | 0.053
21 | ACTCCTAT | -0.16
22 | CACCGTAG | -0.00759
23 | CGCCCGCG | 0.0352
24 | CGGGTACA | -0.00669
25 | CGTTGGTC | 0.0344

Row | Sequence | PBM E-score
26 | CCTTTCGC | -0.146
27 | CCATCGCA | -0.185
28 | GGCCTATA | -0.265
29 | CTACTCTC | -0.125
30 | ATACGCTC | 0.0274
31 | AGTGCGGC | -0.254
32 | AATTTTAG | 0.199
33 | CCATCTCA | -0.109
34 | CAAGTCGC | -0.125
35 | ACGAGCAC | -0.0209
36 | ACCTTCAA | -0.0671
37 | AGAAATTG | 0.12
38 | GTATCATA | 0.123
39 | AAGCCTTC | -0.205
40 | CTGGACTC | -0.176
41 | ACGTCAGA | -0.055
42 | CGGTGAAG | -0.232
43 | ATAGCCCC | -0.309
44 | GCCAAGCA | -0.199
45 | CAGATCAA | 0.0015
46 | CCATCAAA | -0.0115
47 | AAATAACA | 0.0895
48 | GCACACGC | -0.0944
49 | CTAATACA | 0.116
50 | GATACGGC | -0.139

Row | Sequence | PBM E-score
51 | TAATCTAA | 0.0248
52 | CCAGAAGC | -0.207
53 | CCTTCCCA | -0.0879
54 | AGTGGGAT | -0.0983
55 | AAGACCCA | -0.165
56 | GCCTAATA | 0.0106
57 | ATGCGTCA | 0.068
58 | CCTCATTC | -0.0955
59 | TAGACCGA | 0.133
60 | CTATAAAA | 0.175
61 | ATCGTATG | 0.0884
62 | CTGAACCC | -0.0469
63 | CCAACGAA | -0.0736
64 | GAAGTTCC | -0.0697
65 | GTACTCCA | -0.0631
66 | GAATTCTA | 0.13
67 | AAGTAACC | -0.12
68 | GCGACAAC | 0.167
69 | CGAACCCC | -0.246
70 | ATGTTGTC | 0.191
71 | AGGTGCGC | -0.154
72 | CCGGCGGC | -0.105
73 | CACGACAC | 0.063
74 | CCACAAGA | -0.0867
75 | GGATAAAA | 0.233

Row | Sequence | PBM E-score
76 | ATAGCATG | -0.207
77 | AGACACAC | 0.133
78 | CGGGATAA | 0.112
79 | AGTTCAGG | -0.0736
80 | AGTGGACA | 0.389
81 | ATCTAGCG | -0.169
82 | CCTTTGGC | -0.132
83 | CGAATTTC | 0.228
84 | CACTAGAA | -0.146
85 | CACCTCCG | -0.053
86 | CGCGTATA | -0.11
87 | CGGATTAA | 0.0802
88 | AGGGGCAC | -0.344
89 | GTCCGAAC | 0.214
90 | CACAAACG | 0.28
91 | CCGTGGAC | 0.0661
92 | CGAGGAGC | -0.0427
93 | GCAACTAC | -0.0253
94 | GTTACCGA | -0.0628
95 | CTCTATGC | -0.0926
96 | CACGACTA | -0.00472
97 | GCTAGCCA | -0.144
98 | TAGAACAA | 0.0296
99 | CACGGGCC | -0.225
100 | AACAACTA | -0.00182

Row | Sequence | PBM E-score
101 | TCCAGCGA | -0.173
102 | AAAGTTTG | 0.148
103 | GCTCAGTA | -0.0319
104 | ACGAGTAA | 0.204
105 | ATACAGCG | -0.0744
106 | CTTATAAC | 0.0642
107 | CTACCCAC | -0.155
108 | CTCGGCCA | -0.0497
109 | ACAATTCA | 0.155
110 | ACACCTGC | -0.0593
111 | ATGTATTC | -0.0192
112 | TCCTGTAA | 0.0376
113 | GATCACCC | -0.167
114 | ACTGCTGG | -0.169
115 | CGTGCACC | -0.164
116 | ACCTACTG | -0.189
117 | CTGCGAGA | -0.153
118 | CGGAATTC | 0.0764
119 | CTTATTAC | 0.102
120 | ACCGTGCC | -0.296
121 | ACGTACTG | 0.0672
122 | CCCGGGCG | -0.159
123 | CACGTAGG | -0.0824
124 | ACGTGCTC | 0.0894
125 | ACGGCTCA | -0.0304

Row | Sequence | PBM E-score
126 | ATACTAAC | 0.132
127 | CAGAAGCA | 0.095
128 | TCAACAGA | 0.122
129 | CGCAGTGC | -0.285
130 | AGCGAGAA | -0.0303
131 | ACGTATCG | 0.0434
132 | GCAGGATA | -0.224
133 | AGTTACAC | -0.00168
134 | AGTTGGAT | -0.0124
135 | CGACATAC | 0.281
136 | GACGGCAC | -0.081
137 | ATATAGAG | -0.0323
138 | ACCTCCTA | -0.222
139 | CAGAATCG | 0.0773
140 | AAGCGGGT | -0.041
141 | ATTCCCTC | -0.137
142 | CCTTAAGA | -0.0211
143 | GAACAGAA | 0.0194
144 | GTAAAGTA | 0.0255
145 | CCAATGTA | 0.0173
146 | GCACGACC | -0.175
147 | CAAGTGTC | 0.221
148 | AACCAGAG | -0.244
149 | CCGGTTAA | -0.0631
150 | CGTTACTC | -0.115

Row | Sequence | PBM E-score
151 | AGCCGGAC | 0.109
152 | CGCAGGTA | -0.0854
153 | GGGGAGAA | -0.173
154 | CGCCCCCC | -0.383
155 | GCCTTCCA | -0.367
156 | AATTGGCC | -0.109
157 | ATTTATAC | 0.176
158 | GACCCGAC | -0.0784
159 | TATCATGA | -0.00129
160 | ACCTAGAA | -0.00168
161 | ACCTTATA | 0.0613
162 | CCAAACGG | -0.136
163 | CATCTAAG | 0.0489
164 | AGACCTAC | -0.0926
165 | CACTTTGG | -0.0207
166 | TCGATAAA | 0.248
167 | GCCTTCAC | -0.0643
168 | AGGGGTTA | -0.248
169 | AAATGGGA | 0.0348
170 | CAAATTGG | 0.174
171 | AGACGGCC | -0.33
172 | GCGAAAAA | 0.0197
